This note sets out measurements from PubChem BioAssay AID1346428 (National Center for Advancing Translational Sciences (NCATS), 2018).

Values joined by “and” are separate entries in the source; they are usually repeats but may differ in a detail not shown here. Equal values may be shown once. The campaign covered roughly 48,000 compounds. About 1,200 (2.5%) were called active. Not shown: some 2% with an inconclusive outcome.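 How the source made its calls: active means activation of at least 60% and not above a set upper limit (about 1 call in 100 departs from these limits); inconclusive means activation of 40% to 60%, or above that upper limit; inactive means activation under 40%.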 The list shows a part of the results.

For this experiment, the target named is Probable G-protein coupled receptor 32 (Homo sapiens) (UniProt O75388). Nature of the experiment: qHTS for Agonists of Human Resolvin D1 Receptor DRV1. Further: 0% is about no effect. The following applies: CHO-K1 GPR32 beta-arrestin PathHunter luminescence, 90 min; at 76.9 µM; hits give high values; zero percent set by DMSO-only wells. An outline of the steps: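 Luminescent readout of beta-Gal complementation quantifies ligand-induced beta-arrestin association with GPR32 in CHO-K1 cells; 90 min compound incubation at 37 °C, detection 1 h at room temperature.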
Sequence of UniProt O75388 (O75388 whole entry, looked up): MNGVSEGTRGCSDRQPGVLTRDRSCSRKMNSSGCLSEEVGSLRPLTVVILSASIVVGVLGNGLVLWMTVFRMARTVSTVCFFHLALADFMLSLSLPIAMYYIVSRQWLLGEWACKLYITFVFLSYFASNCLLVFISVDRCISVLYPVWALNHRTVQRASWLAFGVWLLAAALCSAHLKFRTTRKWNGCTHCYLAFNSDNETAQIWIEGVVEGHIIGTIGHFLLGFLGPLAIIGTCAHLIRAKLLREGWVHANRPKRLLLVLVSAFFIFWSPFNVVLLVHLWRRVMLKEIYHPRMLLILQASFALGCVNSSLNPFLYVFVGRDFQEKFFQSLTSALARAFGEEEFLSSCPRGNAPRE
A general note: In qHTS, concentration-response curves come from the screen itself.
As to `COc1ccc(OC)c2sc(N(Cc3cccnc3)C(C)=O)nc12`, the activation was inactive: -16.8%.
The figure for `COc1cccc(CNC(=O)CN2C(=O)CCc3cc(S(=O)(=O)N4CCOCC4)ccc32)c1` is inactive: 0%; for `CCc1ccc(-n2nc(CO)c(C(=O)NC(C)c3ccc(Cl)cc3)n2)cc1` (centres undefined) it is inactive: -12.2%; for `Cc1ccc(Sc2ccc(N3CCCC(C(=O)Nc4ccc(Br)cc4)C3)nn2)cc1` (centres undefined) it is inactive: 16.3%.
The figure for `O=C(NCCc1ccc(Cl)cc1)c1cc(-c2ccccc2)n[nH]1` is inactive: 20.4%; for `COc1ccc(SCc2cc(=O)c3ccc(C)c(C)c3[nH]2)cc1` it is inactive: -10.2%; for `Cc1nc2ccn(Cc3cccnc3)c(=O)c2cc1C(=O)N1CCN(c2ccccc2F)CC1` it is inactive: -4.79%.
The figure for `Cc1c(C)n(Cc2ccccc2)c2ccc(C(=O)N3CCN(c4ccccc4F)CC3)cc12` is inactive: -36.3%; for `COc1ccc2c(c1)Cc1sc(NC(=O)c3ccccc3C)nc1-2` it is inactive: -5.97%; for `Cc1ccc(C)c(N2CCN(c3nc4ccccc4c(=O)n3-c3ccc(Cl)cc3)CC2)c1` it is inactive: -14%.
On to `CCOc1ccc(-c2nnc(SCC(=O)NC3CCCCC3)nc2-c2ccc(OCC)cc2)cc1`, for which the activation was inactive: -13.9%.
The figure for `COc1ccc(C2=C(C)C(N3CCC(C(=O)NCc4ccc(C)o4)CC3)=NS2(=O)=O)cc1` is inactive: -0.159%.
Regarding `COc1cccc(CNC(=O)c2ccc(-c3nc(CS(=O)c4ccccc4)c(C)o3)cc2)c1` (centres undefined), the activation is inactive: -13.6%.
Regarding `COc1cc2nc(N(C)CCCNC(=O)C3CCCO3)nc(N)c2cc1OC` (centres undefined), the activation is inactive: 15.5% and inactive: 1.79%.
The figure for `COc1ccc(NC(=O)Cn2cnc3ccc(S(=O)(=O)N4CCC(C)CC4)cc3c2=O)c(OC)c1` is inactive: -4.84%.
Turning to `COc1ccc(Nc2nc3ccccc3nc2NS(=O)(=O)c2ccc(C)cc2)c(OC)c1`, the activation was inactive: -9.23%.
`CCOC(=O)c1cc(-c2ccccc2)n(CCC(=O)NCc2ccccc2Cl)c1C`: the activation was inactive: -33.6%.
As to `COC(=O)c1sc2cccc(F)c2c1S(=O)(=O)N1CCN(c2cccc(OC)c2)CC1`, the activation was inactive: -9.1%.
The figure for `COc1cccc2cc(S(=O)(=O)c3ccc(F)c(C)c3)c(=O)oc12` is inactive: -1.55%; for `O=C(COc1ccccc1F)OCc1cc(=O)n2nc(C3CCCCC3)sc2n1` it is inactive: -11.9%.
For `CCN(CC)c1cc(C)c2cc(NC(=O)c3cccc(OC)c3OC)ccc2n1`, the activation is active: 94.8%.
The figure for `O=C1Nc2ccccc2Oc2cc(Oc3cccc(Cl)c3)ccc21` is active: 91.3%; for `CCCCN(C)CCNC(=O)C1CCCN(S(=O)(=O)c2cccc3nsnc23)C1` (centres undefined) it is inactive: -3.3%.
`Cc1nnc(N2CCCC(C(=O)NCc3ccccc3)C2)c2nn(-c3ccccc3)c(C)c12` (centres undefined): the activation is inactive: 2.61%.
The figure for `Cc1c(Cl)cccc1-c1ccc(CNCCCSc2nnnn2C)o1` is inactive: -8.92%.
The figure for `CCc1ccc(S(=O)(=O)c2cn(C)c3cc(N4CCOCC4)c(F)cc3c2=O)cc1` is inactive: -8.24%.
The figure for `Fc1ccc(N2CCN(c3nc4ccccc4c4nc(-c5cccnc5)nn34)CC2)cc1` is inactive: 9.23%; for `Cc1cc(C)c(S(=O)(=O)N2CCC(n3c(C(F)(F)F)nc4cccnc43)CC2)c(C)c1` it is inactive: -24.2%.
`Cc1nc2nc(SCC(=O)N(C)Cc3ccccc3)nn2c(C)c1Cc1ccccc1Cl`: the activation is inactive: -26.3%.
The figure for `Cc1cn2c(=O)cc(COc3cccc(NC(=O)c4ccc(C(C)(C)C)cc4)c3)nc2s1` is inactive: -9.41%.
The figure for `CCOC(=O)C1CCN(CC(=O)Nc2cc(C)c3c(=O)oc4ccccc4c3n2)CC1` is inactive: 2.2%; for `C=CCc1ccccc1OCCSc1nc(-c2cccs2)nc2cc(=O)[nH]n12` it is active: 85.6%; for `CCOc1ccc(NC(=O)c2c(C)nn(-c3ccc(F)cc3)c2-n2cccc2)cc1` it is inactive: 20.9%.
The figure for `O=C(CCn1cnc2onc(-c3ccc(F)cc3)c2c1=O)Nc1ccc(F)c(Cl)c1` is inactive: 6.51%; for `CCc1c(C)sc2c1CCN(Cc1ccccc1)C2c1ccccc1` (centres undefined) it is inactive: 43.5%.
As for `O=C(Nc1ccc(OCc2cc(=O)n3c4c(sc3n2)CCCC4)cc1)c1cccc(F)c1`, the activation was inactive: 1.53%.
The figure for `Cc1nn(-c2ccccc2)c2nc(C3CC3)cc(C(=O)Nc3ccc(F)cc3)c12` is inactive: -5.19%; for `Cc1ccc(NC(=O)CN(C)S(=O)(=O)c2ccc3c(c2)n(C)c(=O)c(=O)n3C)cc1F` it is inactive: -16.9%; for `COc1ccc(C)cc1NC(=O)COc1cc(=O)n(C)c2ccccc12` it is inactive: 26.5%.
The figure for `CCc1ccc(NC(=O)CN(C)S(=O)(=O)c2ccc3c(c2)c(=O)n(C)c(=O)n3C)cc1` is inactive: 4.89%; for `COc1ccc(NC(=O)c2ccco2)cc1NC(=O)COc1cccc(C)c1C` it is inactive: -2.13%; for `C[N+](C)(C)CCCCCCCCCC[N+](C)(C)C` it is inactive: 21.4% and inactive: -0.425%.
The figure for `O=C(CSc1oc(-c2ccccc2)nc1S(=O)(=O)c1ccc(Br)cc1)c1ccccc1` is inactive: -23.3%; for `Cc1ccc(NC(=O)c2nnn(Cc3ccccc3)c2N)cc1C` it is inactive: 8.76%.
As for `CCOC(=O)c1cc2c(=O)n3ccccc3nc2n(Cc2ccco2)c1=NC(=O)c1ccc(Br)cc1`, the activation is inactive: -28.8%.
The figure for `O=C(Nc1ccc(Br)cc1)c1ccc(F)c(S(=O)(=O)NC2CCCCCC2)c1` is inactive: 7.77%; for `Cc1ccccc1-c1nc(SCC(=O)NCc2ccc(F)cc2)c2c(=O)n(C)c(=O)n(C)c2n1` it is inactive: -0.335%.
The figure for `COc1ccccc1N1CCN(c2nc3ccccc3n3cnnc23)CC1` is inactive: -6.16%.
The figure for `COc1ccc(-c2nc(-c3cc4cc(Br)ccc4oc3=O)cs2)cc1` is inactive: 1.08%; for `Cc1ccc(-n2nc(CO)c(C(=O)NCc3ccccn3)n2)cc1` it is inactive: -4.23%.
Regarding `Cc1cccc(C)c1NC(=O)Nc1csc2c1CCCC2`, the activation was inactive: -12.3%.
The figure for `O=C(CCn1nc(-c2ccccc2)c2ccccc2c1=O)Nc1ccccc1` is inactive: 19.6%.
For the compound `CCc1ccc(-n2nnc(-c3nsc(NC(=O)c4ccccc4Cl)n3)c2C)cc1`, the activation is active: 105%.
The figure for `Cc1cc(-c2ccc(C)c(S(=O)(=O)Nc3cccc(C)n3)c2)on1` is inactive: -7.78%; for `COc1ccc(OCc2ccc(-c3nc(C#N)c(N4CCN(c5ccccc5)CC4)o3)o2)cc1` it is inactive: 6.06%.
The figure for `CC(=O)Nc1ccc(NC(=O)c2cc(=O)c3ccccc3o2)cc1` is inactive: -14.2%; for `Cc1ccc2c(c1)N(C(=O)N1CCC(C(=O)NCc3cccc(Br)c3)CC1)CCO2` it is inactive: 2.94%; for `O=C(O)/C(=C/c1c(C(=O)O)[nH]c2cc(Cl)cc(Cl)c12)c1ccccc1` it is inactive: -3.58%.
For `COc1cc(C2C(=O)N(C3CCCCCC3)CC(=O)N2Cc2ccccc2)ccc1OC(C)C` (centres undefined), the activation was inactive: -29.8%.
The figure for `COc1ccc(N2CCN(C(=O)C3CCN(Cc4nc(-c5ccc(Cl)cc5)oc4C)CC3)CC2)cc1` is inactive: -13.2%; for `CN(C)CCNC(=O)CN1N=C(c2ccccc2)CCC1=O` it is inactive: -5.49%; for `O=C(O)c1ccccn1` it is inactive: -35.5%.
With `C=C(C)Cn1c(=O)c2c(nc3n2CCN3c2cc(C)cc(C)c2)n(C)c1=O`, the activation was inactive: -9.31%.
The figure for `COC(=O)c1ccc(NC(=O)CN(Cc2ccccc2)S(=O)(=O)c2ccc(C)cc2)cc1` is inactive: -6.95%; for `CC(=O)Oc1ccc(C(=C2CCCCC2)c2ccc(OC(C)=O)cc2)cc1` it is inactive: -14.4%.
The figure for `COc1ccc(NC(=O)c2cnc(Nc3ccc(C)c(Cl)c3)c3ccccc23)c(OC)c1` is inactive: -2.87%; for `CCOc1ccc(NC(=O)Cn2cc(C(=O)c3ccc(CC)cc3)c(=O)c3cc4c(cc32)OCO4)cc1` it is inactive: 0.0376%.
Regarding `Cc1ccc(Cl)cc1N1CCN(C(=O)c2cnn(C(C)(C)C)c2C2CCN(C(=O)OC(C)(C)C)CC2)CC1`, the activation is inactive: -8.52%.
The figure for `CCCSc1ncc(Cl)c(C(=O)Nc2ccc(S(=O)(=O)N3CCC(C)CC3)cc2)n1` is inactive: -17.6%; for `COc1ccc(NC(=O)Cn2c(=O)cc(C)c3c(C)nn(C)c32)cc1` it is inactive: -6.61%.
`COc1ccc(CNc2nc(-c3ccc(OC)cc3)cc(C(F)(F)F)n2)cc1`: the activation was inactive: -1.3%.
For `CCCC(=O)N1CCc2cc(OC)c(OC)cc2C1COc1ccc2c(C)cc(=O)oc2c1` (centres undefined), the activation is inactive: -5.5%.
The figure for `COc1ccc2c(c1)CC(C(=O)NCCN1CCN(c3ccccc3F)CC1)CO2` (centres undefined) is inactive: -12.8%.
The figure for `CCc1ccc(NC(=O)CN2CCN(C3CCCCC3)C(=O)C2=O)cc1` is inactive: 28%.
On to `CCC(Sc1ncc(S(=O)(=O)c2ccc(C)cc2)c(=O)[nH]1)C(=O)Nc1cc(C)ccc1C` (centres undefined), for which the activation was inactive: -5.65%.
Consider `O=C(Nc1c(C(=O)c2ccc(Cl)cc2)oc2ccccc12)c1cc(=O)c2ccccc2o1`, for which the activation was inactive: 11.7%.
Turning to `O=C(Cn1cc(SCc2ccc(Br)cc2)c2ccccc21)N1CCCCC1`, the activation is inactive: -29.7%.
The figure for `Cc1ccc(/C=C(\C#N)C(=O)Nc2ccc(Br)cc2)o1` is inactive: 1.3%.
The figure for `Cn1nnnc1SCCCNCc1cccc(OCc2ccccc2F)c1` is inactive: -4.73%.
Regarding `COc1ccc(CCN2C(=O)NC(NC(=O)c3ccccc3OC)(C(F)(F)F)C2=O)cc1OC` (centres undefined), the activation is inactive: -1.33%.
The figure for `CCN(C(=O)CSc1nc2ccccc2n1Cc1ccc(C(=O)OC)cc1)c1ccccc1` is inactive: -2.09%; for `CCc1nc2ccc(C(=O)NCc3ccc(N(C)C)cc3)cc2nc1CC` it is inactive: -25.7%.
The figure for `Cc1ccc2oc(=O)c(S(=O)(=O)c3ccc(F)cc3)cc2c1` is inactive: 16%; for `COc1ccc(NC(=O)c2ccco2)cc1NC(=O)c1ccc(C)c(C)c1` it is inactive: 3.88%.
